This is one part of the list.

One assay has as its system HSkMC. The experiment in a line: cytotoxicity call (relative viability < 0.9). The following applies: 10 µM.
The test system of a further assay is HepG2. The experiment in a line: cytotoxicity call (relative viability < 0.9). The following applies: 10 µM.
A further assay relates to S. aureus RN4220. Put plainly: growth inhibition call (relative growth <= 0.2). As to conditions: 50 µM.

Take `CC(C)NC(=O)Nc1ccc2c(c1)CC(=O)N([C@H](C)CO)C[C@H](C)[C@H](CN(C)Cc1ccc3c(c1)OCO3)O2`: the cytotoxicity call with HSkMC and in the assay with HepG2 was “inactive” in each case. Moreover, in the assay on S. aureus RN4220, the growth inhibition call is “inactive”.
On to `COc1ccc(NC(=O)Nc2ccc3c(c2)C(=O)N([C@H](C)CO)C[C@H](C)[C@@H](CN(C)C(=O)NC(C)C)OCCCC[C@H](C)O3)cc1`, for which the cytotoxicity call in the assay with HSkMC and with HepG2 was “inactive” each time. For the same molecule, the growth inhibition call in the assay on S. aureus RN4220 is “inactive”.
In the case of `C[C@@H]1CN([C@H](C)CO)S(=O)(=O)c2ccc(-c3cncnc3)cc2O[C@@H]1CN(C)C(=O)c1cccc(F)c1`, the cytotoxicity call with HSkMC and with HepG2 was “inactive” each time. Moreover, in the assay on S. aureus RN4220, the growth inhibition call was “inactive”.
On to `CN1C(=O)c2cc(NC(=O)c3ccc(F)cc3)ccc2OC[C@H]2O[C@H](CC(=O)N3CCOCC3)CC[C@H]21`, for which the cytotoxicity call in the assay with HSkMC and in the assay with HepG2 was “inactive” in each case. Besides, the growth inhibition call in the assay with S. aureus RN4220 was “inactive”.
For the molecule `C[C@@H]1CCCCO[C@@H](CN(C)CC2CCCCC2)[C@H](C)CN([C@@H](C)CO)C(=O)c2cc(N(C)C)ccc2O1`, the cytotoxicity call in the assay with HSkMC and with HepG2 was “inactive” in each case. In the assay with S. aureus RN4220, the growth inhibition call was “inactive”.
With `O=C(CCCCCCC(=O)Nc1ccc([C@@H]2O[C@H](CSc3nc(-c4ccccc4)c(-c4ccccc4)o3)C[C@H](c3ccccc3)O2)cc1)NO`, the cytotoxicity call in the assay with HSkMC and in the assay with HepG2 was “inactive” each time. The growth inhibition call in the assay with S. aureus RN4220 was “inactive”.
For `O=C1N[C@H](c2ccccc2)COCc2cn(nn2)CC[C@@H](Cc2ccc(C(F)(F)F)cc2)C(=O)N[C@H](c2ccccc2)COCc2cn(nn2)CC[C@H]1Cc1ccc(C(F)(F)F)cc1`, the cytotoxicity call with HSkMC and in the assay with HepG2 was “inactive” each time. For the same molecule, the growth inhibition call in the assay with S. aureus RN4220 was “inactive”.
Regarding `COc1cccn(CC(=O)NN)c1=O`, the cytotoxicity call with HSkMC and with HepG2 was “inactive” in each case. Further, the growth inhibition call with S. aureus RN4220 was “inactive”.
As to `C[C@@H]1CN([C@H](C)CO)C(=O)c2cc(NC(=O)CCC(F)(F)F)ccc2O[C@@H]1CN(C)S(=O)(=O)c1cn(C)cn1`, the cytotoxicity call in the assay with HSkMC and in the assay with HepG2 was “inactive” in each case. In addition, in the assay with S. aureus RN4220, the growth inhibition call was “inactive”.
In the case of `Nc1ccc(Oc2ccccc2)cc1`, the cytotoxicity call in the assay with HSkMC and with HepG2 was “inactive” each time. For the same molecule, in the assay on S. aureus RN4220, the growth inhibition call is “inactive”.
With `COc1ccc(NC(=O)Nc2ccc3c(c2)C(=O)N([C@H](C)CO)C[C@H](C)[C@@H](CN(C)S(=O)(=O)c2cccs2)OCCCC[C@H](C)O3)cc1`, the cytotoxicity call with HSkMC and in the assay on HepG2 was “inactive” each time. The growth inhibition call in the assay with S. aureus RN4220 was “inactive”.
On to `COc1ccc(S(=O)(=O)N(C)C[C@H]2Oc3ccc(NS(=O)(=O)c4cn(C)cn4)cc3CC(=O)N([C@@H](C)CO)C[C@H]2C)cc1`, for which the cytotoxicity call in the assay with HSkMC and in the assay with HepG2 was “inactive” throughout. Moreover, in the assay with S. aureus RN4220, the growth inhibition call was “inactive”.
Turning to `COc1ccc(NC(=O)Nc2ccc3c(c2)C(=O)N([C@H](C)CO)C[C@@H](C)[C@@H](CN(C)Cc2ccncc2)OCCCC[C@H](C)O3)cc1`, the cytotoxicity call in the assay with HSkMC and in the assay on HepG2 was “inactive” in each case. For the same molecule, the growth inhibition call in the assay on S. aureus RN4220 was “inactive”.
`C[C@@H]1CCCCO[C@@H](CN(C)Cc2ccccc2)[C@@H](C)CN([C@H](C)CO)C(=O)c2cc(NC(=O)Nc3ccccc3)ccc2O1`: the cytotoxicity call in the assay on HSkMC and in the assay with HepG2 was “inactive” each time. Further, the growth inhibition call in the assay with S. aureus RN4220 is “inactive”.
As to `CN(C)CC#Cc1ccc([C@H]2[C@@H](CO)N3CCCCN(C(=O)CN(C)C)C[C@@H]23)cc1`, the cytotoxicity call with HSkMC and with HepG2 was “inactive” each time. Besides, the growth inhibition call with S. aureus RN4220 was “inactive”.
For the molecule `C[C@@H]1CCCCO[C@H](CN(C)C(=O)C2CCCCC2)[C@H](C)CN([C@@H](C)CO)C(=O)c2cc(NS(=O)(=O)c3ccc(Cl)cc3)ccc2O1`, the cytotoxicity call in the assay with HSkMC was “active”. Besides, in the assay on HepG2, the cytotoxicity call was “inactive”. Besides, in the assay with S. aureus RN4220, the growth inhibition call is “inactive”.
Consider `Cc1ccc(S(=O)(=O)Nc2ccc3c(c2)CC(=O)N([C@@H](C)CO)C[C@@H](C)[C@@H](CN(C)Cc2ccc(Oc4ccccc4)cc2)O3)cc1`, for which the cytotoxicity call in the assay with HSkMC and in the assay on HepG2 was “inactive” throughout. Besides, the growth inhibition call in the assay with S. aureus RN4220 was “inactive”.
As for `COc1ccc(CN(CCN(C)C)c2ncccn2)cc1.Cl`, the cytotoxicity call with HSkMC and with HepG2 was “inactive” each time. For the same molecule, the growth inhibition call in the assay on S. aureus RN4220 was “inactive”.
`COc1ccc(NC(=O)N(C)C[C@@H]2OCCCC[C@H](C)Oc3ccc(NS(=O)(=O)c4cccs4)cc3C(=O)N([C@H](C)CO)C[C@@H]2C)cc1`: the cytotoxicity call in the assay with HSkMC and in the assay with HepG2 was “inactive” in each case. In addition, in the assay on S. aureus RN4220, the growth inhibition call is “inactive”.
For `C[C@@H]1CCCCO[C@@H](CN(C)S(=O)(=O)c2cn(C)cn2)[C@@H](C)CN([C@@H](C)CO)C(=O)c2cc(NS(=O)(=O)c3cccs3)ccc2O1`, the cytotoxicity call in the assay on HSkMC and in the assay on HepG2 was “inactive” each time. For the same molecule, the growth inhibition call with S. aureus RN4220 was “inactive”.
For the molecule `Cc1noc(C)c1NC(=O)Nc1cccc2c1O[C@@H](CN(C)S(=O)(=O)c1ccccc1)[C@@H](C)CN([C@@H](C)CO)C2=O`, the cytotoxicity call in the assay on HSkMC and in the assay on HepG2 was “inactive” each time. Moreover, the growth inhibition call in the assay on S. aureus RN4220 was “inactive”.
`C[C@@H]1CCCCO[C@@H](CN(C)Cc2ccc(C(=O)O)cc2)[C@@H](C)CN([C@H](C)CO)C(=O)c2cc(NC(=O)Nc3cccc4ccccc34)ccc2O1`: the cytotoxicity call in the assay on HSkMC and in the assay with HepG2 was “inactive” each time. Further, the growth inhibition call in the assay on S. aureus RN4220 is “inactive”.
As to `Cc1noc(C)c1S(=O)(=O)N(C)C[C@H]1Oc2ccc(NS(C)(=O)=O)cc2CC(=O)N([C@H](C)CO)C[C@H]1C`, the cytotoxicity call with HSkMC and in the assay with HepG2 was “inactive” in each case. Further, the growth inhibition call with S. aureus RN4220 is “inactive”.
Regarding `C[C@@H]1CN([C@H](C)CO)C(=O)c2c(c3ccccc3n2C)-c2ccccc2CO[C@H]1CN(C)C(=O)CCC(F)(F)F`, the cytotoxicity call in the assay on HSkMC and in the assay with HepG2 was “inactive” in each case. For the same molecule, the growth inhibition call in the assay on S. aureus RN4220 is “inactive”.
As for `NCCSC12CC3CC(CC(C3)C1)C2`, the cytotoxicity call in the assay on HSkMC and in the assay on HepG2 was “inactive” in each case. In addition, the growth inhibition call in the assay on S. aureus RN4220 was “inactive”.
For `C[C@@H]1CCCCO[C@@H](CN(C)CC2CCCCC2)[C@@H](C)CN([C@H](C)CO)C(=O)c2cc(NC(=O)Nc3ccc4c(c3)OCO4)ccc2O1`, the cytotoxicity call in the assay on HSkMC was “inactive”. In the assay on HepG2, the cytotoxicity call was “active”. For the same molecule, the growth inhibition call in the assay on S. aureus RN4220 is “inactive”.
As to `C=CC[C@H](CC(=O)N(CCO)Cc1ccccc1)C(=O)N[C@H](COC(=O)[C@H](CC=C)NC(=O)OCC1c2ccccc2-c2ccccc21)C(C)(C)C`, the cytotoxicity call in the assay on HSkMC (human skeletal muscle cells) and in the assay with HepG2 was “inactive” throughout. Besides, in the assay on S. aureus RN4220, the growth inhibition call was “inactive”.

Source of the values: the antibiotic and cytotoxicity screens of Wong et al. (2023).
